From PubChem BioAssay (NCI) come the findings set out here.

Molecules are shown by their SMILES.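 These data come from cells grown in 96-well plates and exposed to compound for 48 hours at five concentrations. Abbreviation: GI50, concentration required for 50% inhibition of growth. At the TGI there is no net growth.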

The test system of this experiment is NCI-H322M lung. Put plainly: inhibition of tumour cell growth, NCI panel, 48 h.

For the compound `COC[C@]12CCC(C)(C)C[C@H]1C1=CC[C@@H]3[C@@]4(C)CCCNC(C)(C)[C@@H]4CC[C@@]3(C)[C@]1(C)CC2`, the GI50 is 1.64 µM and the TGI worked out at 3.06 µM.
The like results for `ClC(Cl)c1nc(-c2cccs2)n2nc(-c3ccccc3)cc2n1` were, in that order, 0.46 µM and 1.9 µM.
